Test results from the supplement of paper PMC11417369.
± gives the standard deviation of the averaged measurements. This is one part of the list.

tested on: PfAP2-LT AP2 domain (GST-tagged); test: gcPBM binding intensity (ln(normalized median fluorescence intensity)); higher = stronger DNA binding
Summary of the method: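 Binding intensity is defined as the maximum Masliner-normalised natural-log median intensity across replicate spots for either probe orientation. It was measured on an Agilent 4 × 180k array of primer-extended double-stranded 36-bp intergenic genomic probes and negative controls, to which GST-tagged P. falciparum DNA-binding domains made in E. coli were applied for 1 h in 1× PBS with 1% milk, 0.2 mg/ml BSA, 0.5% salmon testes DNA and 0.03% Triton X-100. Detection was by Alexa488 anti-GST antibody and scanning at 488 nm.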

Sequence	gcPBM binding intensity (ln)
TAATATAAAGAAATATCAATAATTTGGGCAAATGCC [GTGCAC_negctrl_site621]	8.34 ± 0.52
ATATGCTACATTATATGTACACACATATACATATAT [XGTACX_site1656]	9.46 ± 0.39
TTTTATGCATGTGAAGTGCAAAATAAAAAATAAAAT [GTGCAC_site9612]	8.79 ± 0.49
TTCATTCATTTTATTACACACAAAAAAAAAAAAAAA [CACACA_site3680]	8.48 ± 0.3
AGTTATTTTATAGAATATGAATAATTTTACTTTTCA [XGTACX_negctrl_site403]	8.49 ± 0.4
AAAAAAAAAGGTACTACACACTATTCTCAATAGAAA [CACACA_site6193]	8.85 ± 0.52
AATTTCATTTTACTTATCTAATATTTATAATCTTTT [CACACA_negctrl_site636]	8.65 ± 0.47
AATAATATACCTCTTGTGCACATATTAAAAGTTCAT [GTGCAC_site9536]	8.88 ± 0.39
TTCGTCTTTTTTCTCACACACCCTTTTTATTAAAAG [CACACA_site7225]	9.05 ± 0.6
AGAATTAAAATAAAGGTGCATTTTTTTGTTTCATGT	8.7 ± 0.43
AAAGAATACATATATTGTACATATATATATACCGTT [XGTACX_site6250]	9.02 ± 0.45
ATAATACAAAACACAAGTACATAAATTAAAAAGATG [XGTACX_site7839]	9.12 ± 0.5
ATATATATTAAAAATAGTACATATAATAAAAATCAT [XGTACX_site4265]	8.87 ± 0.35
AACGATATAGGTACTACACACATTATGTCATCCTAT [CACACA_site7205]	9.37 ± 0.28
TACATATTCCTACAAATGTATAAATTATAAATATTA [XGTACX_negctrl_site30]	8.36 ± 0.49
ATATGAAATATATGTAGTACACATAATTAAAAGTAG [XGTACX_site6490]	9.08 ± 0.38
TGTATATGTTTAATTAGTACATATAAAGTAACAATA [XGTACX_site1207]	8.72 ± 0.39
TTAGGATATTTATTTCGTACATATATTTTTAATTGT [XGTACX_site582]	8.69 ± 0.47
AATTTTTATATAATTTAACACACATTTCATATAAAA [CACACA_site9018]	8.53 ± 0.38
TACTTCATATAATTAGCACACAATAATTTCTCATTT [CACACA_site2872]	8.87 ± 0.49
TATAAATTATTTATCACACATAAAACAAAAATAAGA [CACACA_site5493]	8.65 ± 0.44
ATCCGTGGGTGAAATACACACATGATAATGTGAATG [CACACA_site4662]	9.04 ± 0.44

Sequence	gcPBM binding intensity (ln)
ATAAATGAACAAGTGGCACACACACCGTATAACTAA [CACACA_site9047]	9.47 ± 0.45
TGAAAAATATAAGGTTGTACTTACATCGGGAATAAT [XGTACX_site4701]	8.81 ± 0.47
AATTATGTGTGTCAATGTACACGATTTACATAATAT [XGTACX_site5150]	9.11 ± 0.36
AATATATGGTTTCTTGATATTAAATTCAATTTAATG [CACACA_negctrl_site69]	8.51 ± 0.41
ACACATACAACGTGGTGTACAAATAATTATAATCAA [XGTACX_site2287]	9.19 ± 0.63
AATCTTTGTAATAAAAGTACATTAATTTTATTAATA [XGTACX_site8325]	8.3 ± 0.5
TAAGTATATATATTTACACACATTTGTTTTTTTTTA [CACACA_site3784]	8.96 ± 0.45
TTTTAAATACTTTATTGTACATTATATATATATATA [XGTACX_site7021]	8.74 ± 0.39
AAAAAAAAAAAAAAAAGTACATATAATAAATAATGA [XGTACX_site7931]	8.49 ± 0.55
TATATCTTAATATTTACACACATGCGCACCCATAAA [CACACA_site5349]	9.27 ± 0.38
ATATAAACACTGAATGCATGCACATATATATATATA [TGCATGCA_site940]	9.93 ± 0.26
ATAAAGGAATTTTATACACACAACATATATATATAT [CACACA_site2861]	9.28 ± 0.4
TTTTTTTTTACTAACTGTACTAAAGAAAAAAAAGGG [XGTACX_site3519]	8.2 ± 0.33
ATGTGTATATGTGTGGGTACTTAATTTTTTTCTTTA [XGTACX_site5351]	9.24 ± 0.15
CGTATTATTATATAAACACACAAGGGGGCATGTATA [CACACA_site745]	9.58 ± 0.028
GTTATAATTGAACTAGTGCATAAATATATTTTAATT [GTGCAC_site9851]	8.6 ± 0.46
AATTCTGGCAAAATAACACACACATATATTTTATAT [CACACA_site9064]	9.23 ± 0.38
TATCTTTTTTTTAATACACACAAATATATGAAAGTA [CACACA_site4161]	8.54 ± 0.36
TTTGAATACTGAATGGTGCAAATTGTTCTCCCCATG	8.67 ± 0.57
AGTATAACTTTTGCGCGTACACACATTTATCCTCTT [XGTACX_site429]	9.64 ± 0.53
TATATTAAAATAATCACACACATCAATTAATGGTAA [CACACA_site1234]	8.97 ± 0.32
TATAATAATATTTACACACGCATATGTTATATATAT [CACACA_site1477]	9.11 ± 0.32
